Reference: PubChem BioAssay AID1768 (National Center for Advancing Translational Sciences (NCATS), 2009)
The campaign covered roughly 270,000 compounds. About 620 (0.23%) were called active. The inconclusive results got no clear call from the source; some entries with a clear call stand among them for comparison. Calls come from the whole dose curve; as a rule, active = well fitted inhibition curve with a large enough effect in the polarisation, with a control signal flat (not every such curve was filed as active); inconclusive = small, poorly fitted or top-dose-only effect, or effect the other way, or a change in a side signal; inactive = no such curve, though single readings can be large or run the other way; the % refers to the polarisation. A potency beside an inconclusive call is a rough fit, not a confirmed value. A note “side channel” means that the fit belongs to a control or component signal, not to the main read-out.

Molecular target: Menin (Homo sapiens) (UniProt O00255)
Sequence of UniProt O00255 (O00255 whole entry, looked up): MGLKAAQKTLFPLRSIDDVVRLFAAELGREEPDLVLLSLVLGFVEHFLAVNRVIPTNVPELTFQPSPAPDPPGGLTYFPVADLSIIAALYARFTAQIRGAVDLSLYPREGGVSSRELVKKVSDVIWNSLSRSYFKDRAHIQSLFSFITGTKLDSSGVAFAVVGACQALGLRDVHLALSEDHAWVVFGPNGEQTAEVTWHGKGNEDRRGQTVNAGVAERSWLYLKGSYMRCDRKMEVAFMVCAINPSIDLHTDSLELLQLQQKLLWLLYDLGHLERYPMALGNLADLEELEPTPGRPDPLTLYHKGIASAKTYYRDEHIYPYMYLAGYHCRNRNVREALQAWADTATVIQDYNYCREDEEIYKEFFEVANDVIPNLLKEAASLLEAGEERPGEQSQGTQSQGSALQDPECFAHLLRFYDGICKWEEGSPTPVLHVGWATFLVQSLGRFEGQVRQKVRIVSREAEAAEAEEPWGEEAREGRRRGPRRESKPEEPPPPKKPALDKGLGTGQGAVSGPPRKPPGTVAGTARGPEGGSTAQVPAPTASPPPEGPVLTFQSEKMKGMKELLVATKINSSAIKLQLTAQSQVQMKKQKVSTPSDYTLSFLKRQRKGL
Assay: qHTS Assay for Inhibitors Targeting the Menin-MLL Interaction in MLL Related Leukemias: Competition With Texas Red Labeled MLL-derived Mutant Peptide
Conditions: fluorescence polarization; series mostly up to 61.6 µM
Potency is the fitted concentration of half-maximal effect; tags give direction and shape of the fitted curve or compound fluorescence and quenching.

Potency, inactive:
C[C@@H]1O[C@@H](Oc2c(-c3cc(O)c(O)c(O)c3)oc3cc(O)cc(O)c3c2=O)[C@H](O)[C@H](O)[C@H]1O
CCC(=O)NC(c1ccccc1OC)c1ccc2cccnc2c1O (stereo not given)
COC(=O)c1ccsc1NC(=O)CSc1nnnn1-c1ccccc1SC

Potency, inconclusive:
FC(F)(F)c1ccccc1-n1ccnc1 15.8 µM [inhibitor, partial curve, poor fit]
COc1cc2c(cc1OC)C(c1ccccc1)NC(C)(C)C2 (stereo not given) 10 µM [inhibitor, partial curve]
O=C(O)c1cccc(Cn2c(Cl)c(/C=N/Nc3ccccc3)sc2=O)c1 2.82 µM [quencher, side channel, full curve]
CCS(=O)(=O)C1=NSC2=NC(=O)/C(=C\c3ccc(OS(=O)(=O)c4ccccc4)c(OC)c3)C(=N)N21 14.1 µM [quencher, side channel, partial curve]
COc1ccc(-c2nc3n(n2)C(=O)CC(c2ccco2)S3)cc1 (stereo not given) 39.8 µM [quencher, side channel, single point]
Cc1ccc(C(=O)Nc2ccon2)cc1S(=O)(=O)N1CCCCCC1 39.8 µM [quencher, side channel, single point]
COc1ccccc1C(=O)Nc1ccc2c(c1)nc1n2CCN(Cc2ccccc2)C1 3.16 µM [fluorescent, side channel, partial curve]
CCCCn1c(SCC(=O)c2ccc(O)c(O)c2)nc2ccsc2c1=O 20 µM [quencher, side channel, partial curve]
O=C(COC(=O)c1ccc2c(c1)OCCO2)Nc1cc(Cl)ccc1Cl 31.6 µM [fluorescent, side channel, single point]
C=CCn1c(C)cc(C2=NNC(=NCc3ccccc3)SC2)c1C 39.8 µM [inhibitor, single point]
COc1ccccc1-n1c(=S)[nH]c2c(sc(=S)n2-c2ccccc2)c1=O 28.2 µM [inhibitor, single point]
Cc1ccc(N2C(S)=C(C#N)C(=O)NC2c2cccs2)cc1 (stereo not given) 31.6 µM [quencher, side channel, single point]
COc1ccc2[nH]cc(CCNc3nc(-c4ccoc4)nc4ccccc34)c2c1 15.8 µM [quencher, side channel, partial curve]
Cc1cccc(Cn2cccc2/C=C2/C(=N)N3C=CSC3=NC2=O)c1 14.1 µM [quencher, side channel, partial curve]
O=C(N/N=C\c1cccc(F)c1)c1ccc(Cn2cc(Br)c([N+](=O)[O-])n2)o1 22.4 µM [quencher, side channel, partial curve]
CCOC(=O)c1c(C)oc2c1cc(NS(=O)(=O)c1ccc(C(=O)O)cc1)c1ccccc12 28.2 µM [quencher, side channel, single point]
CCC(CO)[n+]1c(C)cc(/C=C2\Sc3ccccc3N2Cc2ccccc2)cc1C (stereo not given) 1 µM [fluorescent, side channel, full curve, poor fit]
N#CC1CC(c2ccccc2)=NN1c1ccccc1[N+](=O)[O-] (stereo not given) 20 µM [quencher, side channel, single point]
O=C(Nc1nccs1)c1ccc2ccccc2c1 22.4 µM [quencher, side channel, single point]
O=S(=O)(/N=C(/Nc1ccc(Cl)c(S(=O)(=O)Nc2ccccc2Cl)c1)c1ccc(F)cc1)c1ccccc1 39.8 µM [inhibitor, single point]
COc1ccc(-c2nc(C#N)c(NCCCN(C)C)o2)cc1OC 39.8 µM [quencher, side channel, single point]
O=C(CCC(=O)Nc1ccc(Cl)cc1Cl)N/N=C/c1ccc([N+](=O)[O-])o1 20 µM [quencher, side channel, single point]
CC(CCc1ccccc1)NC(=O)CN1CCc2ccccc2C1 (stereo not given) 20 µM [fluorescent, side channel, partial curve]
CC(C)Cc1nc2ccccc2n1CCc1ccccc1 28.2 µM [fluorescent, side channel, single point]
C/C(CCc1ccc2c(c1)OCO2)=N\N=C(/N)SC1CC(=O)N(c2ccc(Cl)cc2)C1=O (stereo not given) 35.5 µM [quencher, side channel, single point]
O=C(CCCOc1ccc(Cl)cc1Cl)NNC(=O)c1ccc(NC(=O)c2ccccc2)cc1 8.91 µM [inhibitor, partial curve]
O=C(Cc1cccc2ccccc12)Nc1nnc(-c2cccc([N+](=O)[O-])c2)s1 11.2 µM [quencher, side channel, partial curve]
CC(C)CC(=O)Nc1cccc(-c2nc3ncccc3o2)c1 0.631 µM [fluorescent, side channel, full curve, poor fit]
C=CCNC(=O)CSc1cc([N+](=O)[O-])cc(S(=O)(=O)Cc2ccccc2)c1 22.4 µM [quencher, side channel, single point]
O=C1CCN(Cc2ccccc2)CCN1CCOc1ccccc1 8.91 µM [fluorescent, side channel, partial curve]
Cc1ccccc1/C=C1\SC(=S)N(/N=C/c2cc([N+](=O)[O-])ccc2O)C1=O 25.1 µM [quencher, side channel, partial curve]
COc1ccc(OC)c(Nc2nc(-c3ccccc3O)nc3ccccc23)c1 2 µM [quencher, side channel, full curve]
